Here are results for 83 compounds from ChEMBL document CHEMBL1201862, “PubChem BioAssay data set” (2004).

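1) Cells in 96-well plates. 2) Compound, 48 h, 5 concentrations. 3) Linear interpolation between surrounding doses. 4) Unreached endpoint = highest concentration. GI50: concentration for 50% inhibition of growth.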 Active and inactive are the calls of the source. Rule as the data show it: active = GI50 up to about 1.1 µM and inactive = higher. A value given as a limit tells only on which side of the number the result lay.

For the assay, the system named is NCI-H322M. The assay is described as follows: NCI anticancer screen, dose series, 48 h.
On to `CCOC(=O)c1csc(NC(=O)CN2CCOCC2)n1`, for which the GI50 was inactive: > 100 µM.
`CCN(CC)CCn1c2ccccc2c(=O)c2c(O)ccc(O)c21`: the GI50 is inactive: 48.4 µM.
To `Nc1nc(N)c2c(Cl)c(CNc3ccc(Cl)c(Cl)c3)ccc2n1` belongs active: 0.136 µM; to `O=C(O)CCC1(c2ccccc2)NC(=O)NC1=O` (stereo not drawn), inactive: > 100 µM; to `O=C(/C=C/C(Cl)(Cl)Cl)Nc1ccc(Cl)cc1`, inactive: 17.4 µM.
The value for `Nc1ccc(C(=O)NN2C(=O)[C@H](Cl)C2c2ccc(Cl)cc2)cc1` (stereo partly drawn) was inactive: 2.08 µM; that for `CCOC(=O)C1=C(N2CCCC2)C(=O)C(C(=O)OCC)C1` (stereo not drawn) was inactive: > 100 µM; that for `COC(=O)CC1NC(=O)C1C(C)(OC)OC` (stereo not drawn) was inactive: > 100 µM.
The value for `CCN(CC)CCC(=O)NC1c2ccc(Cl)cc2Oc2c(C)cccc21` (stereo not drawn) was inactive: 15.8 µM; that for `O=c1[nH]cc(OCC(F)(F)F)c(=O)[nH]1` was inactive: > 100 µM.
Consider `CC(=O)NC(C)c1ccc(/N=N/N2CCCC2)cc1` (stereo not drawn), for which the GI50 is inactive: > 100 µM.
The value for `COc1cc2[nH]c(=O)c3cc(-c4ccccc4)cc4c(Cl)nc(c1OC)c2c43` was inactive: 29 µM; that for `Cc1cccc2c(N)c3cccc(C(=O)NCC[N+](C)(C)[O-])c3nc12` was inactive: 10.4 µM; that for `O=C(Nc1sccc1S(=O)(=O)c1ccc(Cl)cc1)c1ccc(Cl)cc1` was inactive: > 100 µM.
To `O=c1n(/N=C/c2ccccc2)c(=O)n2n1C1C=CC2CC1` belongs inactive: > 100 µM.
The value for `CCCCCCCCC[C@@H]1C[C@H](O)[C@H](Cc2ccccc2)N1C(=O)OC(C)(C)C` was inactive: 18.1 µM.
On to `COc1ccc(C2OCCN2C)cc1` (stereo not drawn), for which the GI50 was inactive: > 100 µM.
The value for `COC(=O)[C@H](Cc1ccccc1)NC(=O)c1ccc(CNC(=O)/C=C/c2ccc(OCc3ccccc3)cc2)cc1` was inactive: 22.5 µM.
The value for `Cc1c(-c2cc(-c3ccccc3)n[nH]c2=O)c2ccccc2n1C` was inactive: > 100 µM; that for `Nc1ccc(C(=O)CC(N)C(=O)O)cc1O` (stereo not drawn) was inactive: > 100 µM; that for `COc1c2c(nc3ccccc13)-c1cc(C(CC(=O)OC(C)(C)C)C(=O)OC(C)C)c(CO)c(=O)n1C2` (stereo not drawn) was inactive: > 100 µM.
On to `COc1cc(S(=O)(=O)Nc2nc(-c3ccc(N4C(=O)C(CC(=O)O)SC4c4ccccc4O)cc3)cs2)ccc1Cl` (stereo not drawn), for which the GI50 is inactive: 69.8 µM.
As for `CN(C)CCNC(=O)c1cccc2nc3ccc4cccnc4c3nc12`, the GI50 was active: 0.303 µM.
To `O=C1c2ccccc2C(=O)N1[C@@H](Cc1ccccc1)C(=O)n1cccc1CO` belongs inactive: > 100 µM; to `C/C(CC(=O)Nc1cccc(Cl)c1C)=N\NC(=O)c1ccncc1`, inactive: > 100 µM.
The value for `COc1ccccc1/C=C/c1nc2ccccc2o1` was inactive: > 10 µM; that for `Cc1cc(C)c(C2CC(O)C(CO)O2)cc1C` (stereo not drawn) was inactive: > 100 µM; that for `CN1CCc2cc(O)c3cc2C1Cc1ccc(cc1)Oc1cc(ccc1O)CC1c2c(cc4c(c2O3)OCO4)CCN1C` (stereo not drawn) was inactive: 53.7 µM.
The value for `Cn1nc2ccc3nccc(N4CCN(CCO)CC4)c3c2n1` was inactive: > 100 µM.
Consider `CCOP(=O)(OCC)OC1C=CC2CCC1C2` (stereo not drawn), for which the GI50 is inactive: > 100 µM.
The value for `Nc1ccccc1CCN1CCN(CCCc2ccccc2)CC1` was inactive: 72.1 µM; that for `N/N=C(\CCN1CCCC1)CC(c1ccccc1)c1c(O)c2ccccc2oc1=O` (stereo not drawn) was inactive: > 100 µM; that for `Nc1nc(NNc2ccc(Cl)c(Cl)c2)cc(=O)[nH]1` was inactive: 56.9 µM.
Regarding `COC(=O)C(CC(=O)c1ccccc1)c1ccccc1NC(C)=O` (stereo not drawn), the GI50 was inactive: > 100 µM.
To `N=c1oc2c(Cl)cc(Cl)cc2cc1C(=O)Nc1ccccn1` belongs inactive: > 100 µM; to `CC(C(=O)[O-])S(=O)(=O)O.CCc1c2cc(OC)c(OC)cc2cc2c3cc(OC)c(OC)cc3cc[n+]12`, inactive: 28.6 µM; to `Cc1ccc(NC(=O)/C(=N/N(C)C)C(C2OC(=O)c3ccccc32)[N+](=O)[O-])cc1` (stereo not drawn), inactive: > 100 µM.
The value for `C/C(CC(O)(C(F)(F)Cl)C(F)(F)Cl)=N\Nc1ccccc1` was inactive: 30.4 µM.
To `CC1CNc2ccccc2N=C1NN` (stereo not drawn) belongs inactive: > 100 µM; to `COc1cc2c(cc1OCc1ccccc1)CNCC2`, inactive: > 100 µM.
`Clc1ccc(/C(=C/c2ccccc2)Cn2ccnc2)cc1`: the GI50 is inactive: 46.1 µM.
Consider `Cn1c(NC(=O)NC23CC4CC(CC(C4)C2)C3)nc2ccccc21`, for which the GI50 is inactive: 88.7 µM.
On to `COc1c(-c2ccc(O)c(O)c2)oc2c(O)c(O)cc(O)c2c1=O`, for which the GI50 is inactive: > 100 µM.
Regarding `O=C1c2ccccc2CN1c1ccc(OCCN2CCCCC2)cc1`, the GI50 was inactive: > 10 µM.
Turning to `Cc1c2c(n(CCN(C)C)c1C)NN=C(C#N)S2(=O)=O`, the GI50 is inactive: > 100 µM.
The value for `COc1ccc2c(c1)-c1oc3ccccc3c(=O)c1CO2` was inactive: 52.2 µM.
To `C[C@]12C(=O)C=CCC1=CC[C@@H]1[C@@H]2[C@H]2CC3(O)C(=O)O[C@@]4(C)[C@H]5C[C@@]6(C)[C@@H]7[C@@]2(O)[C@]1(OC[C@H]6C(=O)O5)O[C@]734` (stereo partly drawn) belongs inactive: > 100 µM.
As to `CCC(O)(Cc1ccc(OC)cc1)c1ccc(OC)cc1` (stereo not drawn), the GI50 was inactive: > 100 µM.
To `COc1ccc(-c2c(N)n(-c3cc(OC)cc(OC)c3)c(=O)c3cc([N+](=O)[O-])ccc23)cc1` belongs inactive: > 100 µM; to `COc1ccccc1-n1c(C)nc2ccccc2c1=O`, inactive: > 100 µM.
In the case of `COC(=O)C1=C(C)N2[C@H](C(=O)O)CS[C@@]2(C)[C@H](C(=O)OC)[C@H]1c1cccc([N+](=O)[O-])c1`, the GI50 is inactive: > 100 µM.
To `CCOc1cc2c(cc1OC(C)=O)C(=O)CC[C@H]1C3CC[C@H](OC(C)=O)[C@@]3(C)CC[C@H]21` (stereo partly drawn) belongs inactive: > 100 µM.
With `C[Si](C)(C)OC1c2[nH]c3ccccc3c2CN2C(=O)CCC12` (stereo not drawn), the GI50 was inactive: > 100 µM.
As for `CC1=C(C(=O)OC(C)C)C(c2ccccc2C(F)(F)F)C(C(=O)OC(CO[N+](=O)[O-])CO[N+](=O)[O-])=C(C)N1` (stereo not drawn), the GI50 is inactive: 28.1 µM.
For the compound `CCN(CCCl)c1cc(CN(C)C)cc(NC(=O)c2ccc(C(=O)Nc3cccc(N(CCCl)NN)c3)cc2)c1`, the GI50 was active: 0.126 µM.
The value for `C=C1C(=O)OC2CC1C(O)C/C(C)=C/CC/C(C)=C/C(O)CC2C` (stereo not drawn) was inactive: 10.7 µM.
To `O=C(CN1C(=O)c2ccccc2C1=O)OC1C=CCCC1` (stereo not drawn) belongs inactive: > 100 µM; to `COc1cc2nc3n(c(=O)c2cc1OC)-c1ccc([N+](=O)[O-])cc1C3=O`, inactive: > 100 µM; to `CC1(CO)OC(n2cc(C(=O)NC(=O)OCc3ccccc3)c(=O)[nH]c2=O)CC1O` (stereo not drawn), inactive: > 100 µM.
Turning to `O=[N+]([O-])C(=C(Nc1cccc2cccnc12)Nc1cccc2cccnc12)C(Cl)=C(Cl)Cl`, the GI50 was inactive: 98.4 µM.
To `Cc1cc2c(c(=O)n1C)SCC2` belongs inactive: > 100 µM.
To `CC(=O)Nc1ccc(C2[C@H]3C(=O)N(c4ccc(Cc5ccc(N6C(=O)[C@@H]7ON(c8ccccc8)C(c8ccc(NC(C)=O)cc8)[C@@H]7C6=O)cc5)cc4)C(=O)[C@H]3ON2c2ccccc2)cc1` (stereo partly drawn) belongs inactive: > 100 µM; to `C[N+](C)(C)CC1CCCCC1O` (stereo not drawn), inactive: > 100 µM.
To `S=C(NN=C1NCCCCN1)Nc1ccc(Cl)cc1` belongs inactive: 29.3 µM.
Take `COc1ccc([Se][Se]c2ccc(OC)cc2OC)c(OC)c1`: the GI50 was inactive: 11.6 µM.
To `CC(C)(C)NC(=S)N/N=C/c1ccccn1` belongs active: 0.237 µM; to `NC(=O)c1ncn2c1NCC1OC2C(O)C1O` (stereo not drawn), inactive: > 100 µM; to `C/C=C1\C(=O)O[C@H]2C/C(C)=C/CC/C(C)=C/CC[C@@]3(C)O[C@@H]3C[C@@H]12`, inactive: > 100 µM.
To `O=C(O)NC(c1ccccc1)C(NC(=O)c1ccccc1)c1ccccc1` (stereo not drawn) belongs inactive: > 100 µM; to `COc1cc(/C=N/n2c(Cc3ccc(Cl)cc3)n[nH]c2=O)cc(OC)c1OC`, inactive: > 100 µM; to `COc1ccc2ccccc2c1/C=C/C(=O)c1ccccc1`, inactive: 3.66 µM.
In the case of `O=c1c2cccnc2[nH]c2ccc3cn[nH]c3c12`, the GI50 is inactive: 6.43 µM.
`Nc1nc(N)c2ncn(CCCC(c3ccccc3)P(=O)(O)O)c2n1` (stereo not drawn): the GI50 was inactive: > 100 µM.
To `O=S(=O)(O)c1cc(O)c2c(O)c(/N=N/c3cccc4ccccc34)c(S(=O)(=O)O)cc2c1` belongs inactive: > 100 µM; to `COCC1N=C(c2cc(OC)c(OC)c(OC)c2-c2cc3c(cc2[C@@H](C)O)OCO3)O[C@H]1c1ccccc1` (stereo partly drawn), inactive: > 100 µM; to `CN(CC#N)C1CCCC[C@H]1O` (stereo partly drawn), inactive: > 100 µM.
The value for `Cc1cc(S(=O)(=O)NC2=NCCCN2)c(S)cc1Cl` was inactive: 62.1 µM.
To `C[Si](C)(C)[C@@]1([Se]c2ccccc2)CC[C@@H]1C(=O)c1ccccc1` belongs inactive: > 100 µM; to `CC(C)(O)[C@@H]1CC[C@](C)(C2[C@@H](O)C[C@@]3(C)C4C[C@H](OC5OCC(O)C(O)C5O)[C@H]5C(C)(C)[C@@H](OC6OCC(O)C(O)C6OC6OCC(O)C(O)C6O)CC[C@@]56C[C@@]46CC[C@]23C)O1` (stereo partly drawn), inactive: > 100 µM; to `COc1cc(OCCN(C)C)c2[nH]c(C(=O)N3CC(CCl)c4ccc(N)cc43)cc2c1` (stereo not drawn), active: 0.0822 µM.
Regarding `O=C1Nc2ccc(Br)cc2/C1=C/C(=O)c1ccccc1`, the GI50 was inactive: 17.2 µM.
Regarding `CC(C)=CCC/C(C)=C\CC/C(C)=C/CO`, the GI50 was inactive: 45.4 µM.
As for `O=c1oc2ccccc2c(O)c1C1c2c(c3ccccc3oc2=O)Oc2c1c(=O)oc1ccccc21`, the GI50 was inactive: 54.6 µM.
